Measurements published in patent US11365205B2 (Aurigene Discovery Technologies Limited, priority 2018, dated 2022).

Biological target: PRMT5/MEP50 Complex (Homo sapiens (Human), UniProt O14744)
Assay: PRMT5 inhibition based on TR-FRET assay
Type: biochemical
Conditions: 32 nM PRMT5:MEP50, 50 nM Histone-H4 peptide, 1 μM SAM
Source text: PRMT5 Inhibition Based on TR-FRET Assay:
Protein arginine methyltransferase 5 (PRMT5) is a type II arginine methyltransferase that catalyze mono- and symmetric demethylation on arginine residues of histone or non-histone proteins in presence of S-adenosylmethionine (AdoMet or SAM) a cofactor responsible for donating the methyl group. PRMT5 is reported to be overexpressed in several human cancers. To identify compounds that inhibit the PRMT5 and decrease its activity, a TR-FRET based assay has been established. Time-resolved fluorescence resonance energy transfer (TR-FRET) HTS assays are homogeneous proximity assays where the interaction of two dye-labeled binding partners is detected by the energy transfer between a donor and an acceptor dye and the subsequent light emission by the acceptor dye. PRMT5 catalyzes Histone H4 peptide which is biotin tagged to the Lysine amino acid at carboxyl end, in presence of S-adenosyl-1-methionine (SAM) to methylate the peptide. The antibody specific to mono methylated H4 peptide (H4R3) with Ig conjugate binds to the methylated peptide, indirectly binding to the Europium lanthanide. […]
The compound dilutions were prepared as 7.5% DMSO stock solutions in assay buffer. […] The plates were then read on Victor-3 with Excitation at 340 nm and Emissions collected at 615 and 665 nm in TR-FRET protocol. […]

UniProt O14744, sequence (O14744 whole entry): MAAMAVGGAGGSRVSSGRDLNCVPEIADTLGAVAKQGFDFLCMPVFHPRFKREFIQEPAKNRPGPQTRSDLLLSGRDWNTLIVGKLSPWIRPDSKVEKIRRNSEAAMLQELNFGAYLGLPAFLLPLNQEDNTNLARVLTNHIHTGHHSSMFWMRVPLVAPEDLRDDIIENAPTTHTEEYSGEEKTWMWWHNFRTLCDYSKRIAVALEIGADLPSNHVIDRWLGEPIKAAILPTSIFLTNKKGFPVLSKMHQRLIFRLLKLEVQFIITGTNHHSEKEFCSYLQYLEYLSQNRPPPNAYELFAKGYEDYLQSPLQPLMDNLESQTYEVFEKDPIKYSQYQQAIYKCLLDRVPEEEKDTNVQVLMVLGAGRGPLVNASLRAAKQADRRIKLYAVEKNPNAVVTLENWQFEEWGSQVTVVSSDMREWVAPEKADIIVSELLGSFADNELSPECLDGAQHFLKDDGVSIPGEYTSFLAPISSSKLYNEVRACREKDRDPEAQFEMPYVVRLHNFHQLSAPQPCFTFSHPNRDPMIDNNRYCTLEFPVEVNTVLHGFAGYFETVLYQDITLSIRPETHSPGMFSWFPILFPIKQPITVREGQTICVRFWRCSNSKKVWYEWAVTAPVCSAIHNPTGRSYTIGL
UniProt O14744, sequence (Q9BQA1 whole entry partner): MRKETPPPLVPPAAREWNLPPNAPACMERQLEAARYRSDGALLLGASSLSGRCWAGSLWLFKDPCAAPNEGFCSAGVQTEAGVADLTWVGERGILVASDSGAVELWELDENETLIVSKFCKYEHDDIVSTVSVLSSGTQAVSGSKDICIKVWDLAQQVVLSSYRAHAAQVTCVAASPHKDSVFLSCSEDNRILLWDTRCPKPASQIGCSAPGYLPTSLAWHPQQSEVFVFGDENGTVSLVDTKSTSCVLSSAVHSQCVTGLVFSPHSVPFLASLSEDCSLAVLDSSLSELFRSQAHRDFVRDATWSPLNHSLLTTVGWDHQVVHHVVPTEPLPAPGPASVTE

SMILES | IC50 [µM]
O=C(NC1CC1)c1ccc(CN2CCN(C[C@H](O)CN3CCc4ccccc4C3)C2=O)nc1 [Example 50, (R)-N-Cyclopropyl-6-((3-(3-(3,4-di-hydroisoquinolin-2(1H)-yl)-2-hydroxypropyl)-2-oxoimidazolidin-1-yl)methyl)nicotinamide] | 0.09
O=C(c1cccnc1CN1CCN(C[C@H](O)CN2CCc3ccccc3C2)C1=O)N1CCCCC1 [Example 52, (R)-1-(3-(3,4-dihydroisoquinolin-2(1H)-yl)-2-hydroxypropyl)-3-((3-(piperidine-1-carbonyl)pyridin-2-yl)methyl)imidazolidin-2-one] | 1.55
